Laboratory results taken from patent US10946019B2, “Nurr1:RXR activating compounds for simultaneous treatment of symptoms and pathology of Parkinson's disease” (priority 2015, dated 2021).

Key:
[1] = tested on: C57/BL6 PD mice treated with MPTP; assay: Accelerating rotarod, post-degeneration MPTP mouse model, single dose; assay type: in vivo
[2] = tested on: C57/BL6 PD mice treated with 6-OHDA; assay: Rotarod and contralateral turns, post-degeneration 6-OHDA mouse model; assay type: in vivo
[3] = tested on: C57/BL6 PD mice treated with 6-OHDA; assay: Abnormal involuntary movements (AIMs) on chronic daily treatment of 6-OHDA mice; assay type: in vivo, mouse; conditions: for dyskinesias with abnormal involuntary movements (AIMs): daily IP for 14 days (compound 3 20 mg/kg)
[4] = tested on: C57BL/6 mice injected unilaterally with 6-OHDA; assay: Neuroprotection in the unilateral 6-OHDA mouse model; conditions: unbiased stereology, vs vehicle

| SMILES | movement coordination (rotarod) ([1]; single IP 20 mg/kg, 7 days after MPTP) | motor coordination (rotarod) ([1]; single dose 10 mg/kg, 8 days post-acute MPTP, 4 hours post-dosing) | motor coordination on chronic daily treatment ([2]; 6-OHDA mice, daily 10 mg/kg for at least two weeks) | spontaneous contralateral turns ([2]; 6-OHDA model, 10 mg/kg, 4 hours post-dosing) | time post-dosing at which symptomatic improvement disappeared ([2]; MPTP and 6-OHDA post-degeneration models, single dose 10 mg/kg) [h] | movement coordination (rotarod) ([2]; single IP 20 mg/kg, 6-OHDA treated mice) | motor coordination (rotarod) ([2]; single dose 10 mg/kg, 5-6 weeks post-unilateral 6-OHDA, 4 hours post-dosing) | dyskinesias with abnormal involuntary movements (AIMs) ([3]; 6-OHDA mice) | increase in number of surviving TH(+) neurons in the SN [4] [%] | time to dyskinesias/AIMs ([3]; 6-OHDA mice, daily treatment) [days] | dyskinesias/AIMs ([3]; daily from 21 days post-unilateral 6-OHDA, compound 3 10 mg/kg for at least two weeks) |
| --- | --- | --- | --- | --- | --- | --- | --- | --- | --- | --- | --- |
| C=CCc1c(N(C)c2ccc(C(=O)O)cc2)nc(-c2ccccc2)nc1C(F)(F)F [Example 3, 4-((5-allyl-2-phenyl-6-(trifluoromethyl)pyrimidin-4-yl)(methyl)amino)benzoic acid] | increased movement coordination | significantly improved temporarily motor coordination | consistently improved motor coordination | induced contralateral turns | 8 | increased movement coordination | significantly improved temporarily motor coordination | did not induce dyskinesias | 47 | – | – |
| N[C@@H](Cc1ccc(O)c(O)c1)C(=O)O [L-DOPA, L-3,4-dihydroxyphenylalanine] | – | – | – | – | – | – | – | induced dyskinesias | – | ≤ 7 | severe hyperkinetic dyskinesias/AIMs |
